# Test results: a compilation of properties of binary mixtures (doi:10.1007/s10953-013-0016-8)
# Some of these densities may be calculated back from excess volumes.
# Test: xn = mol fraction of the nth substance listed
# Conditions: 100 kPa
structure (smiles),measurement,setting,value
CCCC[n+]1ccn(C)c1.COS(=O)(=O)[O-] + CO,mass density,"283.15 K, x2 = 0",1217.2 kg/m3
same,mass density,"283.15 K, x2 = 0.1482",1205.1 kg/m3
same,mass density,"283.15 K, x2 = 0.4684",1161.8 kg/m3
same,mass density,"283.15 K, x2 = 0.5833",1135.7 kg/m3
same,mass density,"283.15 K, x2 = 0.6451",1118.1 kg/m3
same,mass density,"283.15 K, x2 = 0.708",1092.9 kg/m3
same,mass density,"283.15 K, x2 = 0.7535",1072.7 kg/m3
same,mass density,"283.15 K, x2 = 0.8903",972.4 kg/m3
same,mass density,"288.15 K, x2 = 0",1214 kg/m3
same,mass density,"288.15 K, x2 = 0.1482",1201.6 kg/m3
same,mass density,"288.15 K, x2 = 0.2877",1186 kg/m3
same,mass density,"288.15 K, x2 = 0.4684",1158.1 kg/m3
same,mass density,"288.15 K, x2 = 0.5833",1132.1 kg/m3
same,mass density,"288.15 K, x2 = 0.6451",1114.5 kg/m3
same,mass density,"288.15 K, x2 = 0.708",1089.4 kg/m3
same,mass density,"288.15 K, x2 = 0.7535",1068.7 kg/m3
same,mass density,"288.15 K, x2 = 0.946",898.6 kg/m3
same,mass density,"293.15 K, x2 = 0",1210.8 kg/m3
same,mass density,"293.15 K, x2 = 0.1482",1198 kg/m3
same,mass density,"293.15 K, x2 = 0.395",1168.1 kg/m3
same,mass density,"293.15 K, x2 = 0.4684",1154.4 kg/m3
same,mass density,"293.15 K, x2 = 0.6451",1110.9 kg/m3
same,mass density,"293.15 K, x2 = 0.708",1085.5 kg/m3
same,mass density,"293.15 K, x2 = 0.7535",1064.8 kg/m3
same,mass density,"293.15 K, x2 = 0.7941",1041.1 kg/m3
same,mass density,"293.15 K, x2 = 0.8903",964.2 kg/m3
same,mass density,"293.15 K, x2 = 0.946",894.1 kg/m3
same,mass density,"298.15 K, x2 = 0",1207.7 kg/m3
same,mass density,"298.15 K, x2 = 0.2877",1179 kg/m3
same,mass density,"298.15 K, x2 = 0.395",1164.7 kg/m3
same,mass density,"298.15 K, x2 = 0.4684",1151.3 kg/m3
same,mass density,"298.15 K, x2 = 0.5833",1125.1 kg/m3
same,mass density,"298.15 K, x2 = 0.6451",1107.3 kg/m3
same,mass density,"298.15 K, x2 = 0.7535",1061.2 kg/m3
same,mass density,"298.15 K, x2 = 0.7941",1037.5 kg/m3
same,mass density,"298.15 K, x2 = 0.8903",960.1 kg/m3
same,mass density,"303.15 K, x2 = 0",1204.5 kg/m3
same,mass density,"303.15 K, x2 = 0.1482",1191.5 kg/m3
same,mass density,"303.15 K, x2 = 0.2877",1175.8 kg/m3
same,mass density,"303.15 K, x2 = 0.395",1161.4 kg/m3
same,mass density,"303.15 K, x2 = 0.5833",1121.4 kg/m3
same,mass density,"303.15 K, x2 = 0.708",1078.4 kg/m3
same,mass density,"303.15 K, x2 = 0.7535",1057.6 kg/m3
same,mass density,"303.15 K, x2 = 0.7941",1033.7 kg/m3
same,mass density,"303.15 K, x2 = 0.8903",956.3 kg/m3
same,mass density,"303.15 K, x2 = 0.946",885.7 kg/m3
same,mass density,"308.15 K, x2 = 0.2877",1172.2 kg/m3
same,mass density,"308.15 K, x2 = 0.395",1157.8 kg/m3
same,mass density,"308.15 K, x2 = 0.4684",1144.1 kg/m3
same,mass density,"308.15 K, x2 = 0.5833",1117.7 kg/m3
same,mass density,"308.15 K, x2 = 0.708",1074.7 kg/m3
same,mass density,"308.15 K, x2 = 0.7535",1053.7 kg/m3
same,mass density,"308.15 K, x2 = 0.7941",1029.8 kg/m3
same,mass density,"308.15 K, x2 = 0.8903",952 kg/m3
same,mass density,"308.15 K, x2 = 0.946",881.3 kg/m3
same,mass density,"313.15 K, x2 = 0",1197.8 kg/m3
same,mass density,"313.15 K, x2 = 0.4684",1140.6 kg/m3
same,mass density,"313.15 K, x2 = 0.6451",1096.5 kg/m3
same,mass density,"313.15 K, x2 = 0.708",1070.9 kg/m3
same,mass density,"313.15 K, x2 = 0.7535",1050 kg/m3
same,mass density,"313.15 K, x2 = 0.7941",1026.1 kg/m3
same,mass density,"313.15 K, x2 = 0.8903",948.1 kg/m3
same,mass density,"313.15 K, x2 = 0.946",876.9 kg/m3
same,mass density,"318.15 K, x2 = 0",1194.5 kg/m3
same,mass density,"318.15 K, x2 = 0.1482",1180.9 kg/m3
same,mass density,"318.15 K, x2 = 0.2877",1165.2 kg/m3
same,mass density,"318.15 K, x2 = 0.395",1150.7 kg/m3
same,mass density,"318.15 K, x2 = 0.4684",1136.9 kg/m3
same,mass density,"318.15 K, x2 = 0.5833",1110.3 kg/m3
same,mass density,"318.15 K, x2 = 0.6451",1092.8 kg/m3
same,mass density,"318.15 K, x2 = 0.946",872.5 kg/m3
same,mass density,"323.15 K, x2 = 0",1191.5 kg/m3
same,mass density,"323.15 K, x2 = 0.1482",1177.8 kg/m3
same,mass density,"323.15 K, x2 = 0.2877",1162.2 kg/m3
same,mass density,"323.15 K, x2 = 0.395",1147.5 kg/m3
same,mass density,"323.15 K, x2 = 0.4684",1133.7 kg/m3
same,mass density,"323.15 K, x2 = 0.708",1063.7 kg/m3
same,mass density,"323.15 K, x2 = 0.7535",1042.4 kg/m3
same,mass density,"323.15 K, x2 = 0.7941",1018.4 kg/m3
same,mass density,"323.15 K, x2 = 0.946",868.4 kg/m3
same,mass density,"328.15 K, x2 = 0",1188.3 kg/m3
same,mass density,"328.15 K, x2 = 0.1482",1174.4 kg/m3
same,mass density,"328.15 K, x2 = 0.395",1144.1 kg/m3
same,mass density,"328.15 K, x2 = 0.4684",1130.1 kg/m3
same,mass density,"328.15 K, x2 = 0.5833",1103.5 kg/m3
same,mass density,"328.15 K, x2 = 0.6451",1085.8 kg/m3
same,mass density,"328.15 K, x2 = 0.708",1060.1 kg/m3
same,mass density,"328.15 K, x2 = 0.7535",1038.7 kg/m3
same,mass density,"328.15 K, x2 = 0.7941",1014.6 kg/m3
same,mass density,"328.15 K, x2 = 0.8903",935.7 kg/m3
same,mass density,"328.15 K, x2 = 0.946",863.9 kg/m3
same,mass density,"333.15 K, x2 = 0",1185 kg/m3
same,mass density,"333.15 K, x2 = 0.1482",1171.2 kg/m3
same,mass density,"333.15 K, x2 = 0.2877",1155.2 kg/m3
same,mass density,"333.15 K, x2 = 0.395",1140.7 kg/m3
same,mass density,"333.15 K, x2 = 0.4684",1126.5 kg/m3
same,mass density,"333.15 K, x2 = 0.5833",1100 kg/m3
same,mass density,"333.15 K, x2 = 0.708",1056.3 kg/m3
same,mass density,"333.15 K, x2 = 0.7535",1035 kg/m3
same,mass density,"333.15 K, x2 = 0.7941",1010.8 kg/m3
same,mass density,"333.15 K, x2 = 0.8903",931.5 kg/m3
same,mass density,"333.15 K, x2 = 0.946",859.4 kg/m3
CO + CCCC[n+]1ccn(C)c1.COS(=O)(=O)[O-],mass density,"283.15 K, x1 = 1",800.4 kg/m3
same,mass density,"288.15 K, x1 = 1",795.8 kg/m3
same,mass density,"293.15 K, x1 = 1",791.2 kg/m3
same,mass density,"298.15 K, x1 = 1",786.4 kg/m3
same,mass density,"303.15 K, x1 = 1",781.7 kg/m3
same,mass density,"308.15 K, x1 = 1",777.1 kg/m3
same,mass density,"313.15 K, x1 = 1",772.4 kg/m3
same,mass density,"318.15 K, x1 = 1",767.5 kg/m3
same,mass density,"323.15 K, x1 = 1",763 kg/m3
same,mass density,"328.15 K, x1 = 1",758.1 kg/m3
same,mass density,"333.15 K, x1 = 1",753.2 kg/m3
